# In PubChem BioAssay AID1347120 (National Center for Advancing Translational Sciences (NCATS), 2019):
# Out of some 390,000 compounds screened, about 930 (0.24%) were called active. The inconclusive results got no clear call from the source; some entries with a clear call stand among them for comparison. The call rests on the fitted dose curve; in most records, active means well fitted activation curve with a large enough effect; inconclusive means small, poorly fitted or top-dose-only effect; inactive means no such curve, though single readings can be large or run the other way. Where the call is inconclusive, the potency comes from a doubtful curve fit.
# Test: qHTS for Suppressors of FUS Proteinopathy: Primary screen using FUS-linked yeast assay; further: nearly all actives have a fitted effect of over 55% in size;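 on growth rescue (activation): plate controls were DMSO vehicle for no effect and reference control for full effect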
# Conditions: S. cerevisiae FUS-expressing, OD600, 24 h; Potency: growth rescue; growth rescue (activation): at 76.6 µM (top of the series)
# Method in brief: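 Read-out: OD at 600 nm after 24hr at 30C, reporting rescue of FUS-induced yeast toxicity. Cells at OD 0.005 in galactose (2%) minimal medium; compounds tested in a dilution series; CP55940 titration from 92uM final as control.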
# Potency means the concentration at half of the fitted maximal effect; tags describe the fitted curve by direction and shape.
Compound,Potency,growth rescue (activation)
O=C1C(=Cc2cn(-c3ccccc3)nc2-c2ccc(OCc3ccccc3)cc2)SC(=S)N1CCS(=O)(=O)O,"inconclusive: 50.1 µM [activator, single point]",
COC(=O)CN(c1c(C)cccc1C)S(C)(=O)=O,inactive,
Cn1c(C(=O)N2CCCC(C(=O)NCCCc3ccccc3)C2)cc2sccc21 (stereo not drawn),"inconclusive: 50.1 µM [activator, single point]",
CCOC(=O)c1cccc(Nc2ccc3cc(S(=O)(=O)N4CCCCC4)ccc3n2)c1,inactive,
Cc1noc(C)c1C(=O)OC(C)C(=O)N1CCc2ccccc21 (stereo not drawn),"inconclusive: 1.78 µM [activator, full curve, poor fit]",
CCCCN1CC(=O)N2[C@H]3c4ccc(OC)cc4OC[C@@H]3[C@H](c3ccccc3)[C@]2(C)C1=O,"inconclusive: 28.2 µM [activator, partial curve, poor fit]",
CCCCc1nn2c(=O)cc(COC(=O)c3ccccc3NC(=O)c3ccccc3OC)nc2s1,inactive,
COc1cccc(NS(=O)(=O)c2ccc3[nH]cc(C(=O)N(C)C4CCCCC4)c(=O)c3c2)c1,inactive,
CCC(C)N(c1nc(C)nc2c1nnn2Cc1ccccc1)C(C)CC (stereo not drawn),inactive,
Cc1cccn2cc(COc3cccc([N+](=O)[O-])c3)nc12,inactive,
COc1ccc(S(=O)(=O)c2c(SC)nn(Cc3ccccc3C)c2NC(C)=O)cc1,inactive,
CN(C)S(=O)(=O)c1cccc2nsnc12,,inconclusive: 69.8% [activator]
COc1ccc(C2=NN3C(C2)c2ccccc2OC32C(=O)N(C)c3ccccc32)cc1 (stereo not drawn),"inconclusive: 14.1 µM [activator, partial curve]",
O=C(CSc1nnc(COc2cccc3ccccc23)o1)N1c2ccccc2CCc2ccccc21,"inconclusive: 22.4 µM [activator, partial curve, poor fit]",
CCC(C)(C)C1CCc2[nH]nc(C(=O)NN)c2C1 (stereo not drawn),"inconclusive: 31.6 µM [activator, partial curve, poor fit]",
Oc1ccccc1/C=N/n1c(COc2ccccc2)n[nH]c1=S,inactive,
Cc1ccccc1C1CCC2(CCC(=O)N2CC[C@@H](O)c2ccccc2)CC1 (stereo partly drawn),inactive,
Cc1ccc(-n2sc3ccccc3c2=O)cc1,inactive,
O=C(Nc1ccc(N2CCOCC2)cc1)c1cc2c(s1)CCCC2,"inconclusive: 2.24 µM [activator, full curve]",
COc1cccc(NC(=O)C2CCCN2C(=O)NC2CCC(C)CC2)c1 (stereo not drawn),inactive,
COc1ccc(CN2C(=O)C(NC(=O)c3ccccc3C)(C(F)(F)F)N=C2c2ccccc2)cc1 (stereo not drawn),"inconclusive: 15.8 µM [activator, partial curve, poor fit]",

Compound,Potency,growth rescue (activation)
CCCCC1=CC2=CC(=O)C(C)(OC(=O)CCc3ccccc3)C(=O)C2=CO1 (stereo not drawn),"inconclusive: 50.1 µM [activator, single point]",
CC(C)(C)N1C(=O)c2ccccc2NC(=O)C1C(=O)NCCc1ccccc1F (stereo not drawn),inactive,
COc1ccc(NC(=O)Cn2c(=O)n(Cc3nc(-c4ccccc4)no3)c(=O)c3cc4c(cc32)OCO4)cc1Cl,"inconclusive: 50.1 µM [activator, single point]",
Cc1cccn2c(=O)cc(COc3cccc(NC(=O)c4ccccc4F)c3)nc12,inactive,
Cc1cccc(NC(=S)NC(=O)/C=C/c2ccco2)c1,"inconclusive: 56.2 µM [activator, partial curve, poor fit]",
CCOC(=O)C1CCN(C(=O)c2ccc3nc(-c4ccc(OC)cc4)c(-c4ccc(OC)cc4)nc3c2)CC1,"inconclusive: 8.91 µM [activator, partial curve, poor fit]",
COc1ccc(CCN2C(=O)c3ccccc3C2c2nnnn2-c2c(C)cccc2C)cc1OC (stereo not drawn),"inconclusive: 12.6 µM [activator, partial curve]",
CCCCCCn1c(=O)n2n(c1=O)[C@@H]1CN(S(=O)(=O)c3ccc(C)cc3)C[C@]1(O)[C@@H](OC(=O)NCc1ccccc1F)C2,"inconclusive: 25.1 µM [activator, partial curve]",
O=C(NC(Cc1ccc(O)cc1)C(=O)O)/C(=C/c1ccccc1)NC(=O)c1ccccc1 (stereo not drawn),"inconclusive: 50.1 µM [activator, single point]",
CCOC(=O)c1sc(SCC(=O)Nc2ccc(N(C)C)cc2)nc1N,"inconclusive: 35.5 µM [activator, single point]",
CCCOc1ccc(N2C(=O)CC(N(CCc3ccc(OC)c(OC)c3)C(=O)c3ccccc3)C2=O)cc1 (stereo not drawn),"inconclusive: 50.1 µM [activator, single point]",
CC1=NN(c2ccc(C)cc2)C(=O)/C1=C/c1ccc(-c2cc([N+](=O)[O-])ccc2O)o1,inactive,
O=C(N/N=C/c1ccc(Br)o1)/C(=C/c1ccc([N+](=O)[O-])cc1)NC(=O)c1ccccc1,"inconclusive: 28.2 µM [activator, partial curve, poor fit]",
NNC(=O)COc1ccc(-c2nccc(-c3ccc(F)cc3)n2)cc1,"inconclusive: 50.1 µM [activator, single point]",
COc1ccc(OC)c(-c2noc(CSc3nnc(Cc4ccccc4)n3-c3cccc(C)c3)n2)c1,"inconclusive: 31.6 µM [activator, single point]",
COc1cccc(NC(=O)CSc2nnc(Cc3cccs3)n2-c2ccc(C)cc2)c1,"inconclusive: 17.8 µM [activator, partial curve, poor fit]",
COC(=O)c1c(NC(=O)CSc2nnc3ccccn23)sc2c1CCC2,inactive,
S=C(NCCSCc1ccccc1Cl)Nc1ccccc1,inactive,
COc1ccc(C(=O)N2CCc3cc(OC)c(OC)cc3C2COc2ccccc2OC)cc1 (stereo not drawn),"inconclusive: 39.8 µM [activator, partial curve, poor fit]",
O=C(c1[nH]c(C(F)(F)F)nc1-c1ccccc1)N1CCC(C(O)(c2ccccc2)c2ccccc2)CC1,"inconclusive: 44.7 µM [activator, single point]",
COc1ccc(CC(=O)N2CCN(c3ccccc3F)CC2)cc1OC,inactive,

Compound,Potency,growth rescue (activation)
O=C(Cc1cccc2ccccc12)Nc1ccccc1C(=O)O,inactive,
COC(=O)c1ccc(-n2c(C)cc(-c3csc(NC(=O)c4ccc(S(=O)(=O)N(C)C)cc4)n3)c2C)cc1,"inconclusive: 15.8 µM [activator, partial curve, poor fit]",
Cc1nc(SCC(=O)c2ccccc2)c(C#N)c(-c2ccco2)c1C(=O)NCc1ccco1,"inconclusive: 6.31 µM [activator, full curve, poor fit]",
CC(C)C[C@H]1CN([C@@H](Cc2ccccc2)CN2CCCC2CN2C(=S)NC[C@@H]2Cc2ccccc2)C(=S)N1CC1CCCCC1 (stereo partly drawn),"inconclusive: 10 µM [activator, full curve]",
CCOc1ccccc1C(=O)Nc1ccc(S(=O)(=O)N2CCCCC2c2cccnc2)cc1 (stereo not drawn),"inconclusive: 28.2 µM [activator, single point]",
C[C@H](CO)N1C[C@H](C)[C@@H](CN(C)C(=O)Nc2ccc(C(F)(F)F)cc2)Oc2c(NC(=O)Nc3ccc(C(F)(F)F)cc3)cccc2C1=O,"inconclusive: 35.5 µM [activator, single point]",
CC(C)c1ccc(NC(=O)OC2CCC23CCC(c2ccccc2)CC3)cc1 (stereo not drawn),inactive,
Cc1ccc(S(=O)(=O)N2CCCCC2)cc1NC(=O)C1CC(=O)N(c2ccc3c(c2)OCCO3)C1 (stereo not drawn),"inconclusive: 44.7 µM [activator, single point]",
CCC(COC)Oc1cc(NCc2ccccc2)c2ncn(C(C)C)c2c1 (stereo not drawn),"inconclusive: 31.6 µM [activator, single point]",
COC(=O)[C@]12C[C@H](CC(=O)NCc3cccs3)C(=O)N(Cc3ccco3)C1=C[C@H](C(C)C)O[C@@H]2C1CC1,"inconclusive: 25.1 µM [activator, partial curve]",
Fc1ccc(-n2cc(-c3ccccc3)c3c(N4CCOCC4)ncnc32)cc1,"inconclusive: 20 µM [activator, partial curve, poor fit]",
CCCN(C)C[C@@H]1OCCCC[C@@H](C)Oc2ccc(NC(=O)c3ccccc3)cc2C(=O)N([C@H](C)CO)C[C@@H]1C,"inconclusive: 50.1 µM [activator, single point]",
COc1cc(/C=C/C(=O)c2ccc3c(c2)OCCO3)cc(Br)c1OCC(=O)N(C)C,"inconclusive: 25.1 µM [activator, single point]",
Cc1nn(-c2ccc(F)cc2)c(Cl)c1C(=O)OC(C)C(=O)N(C)C1CCCCC1 (stereo not drawn),"inconclusive: 7.94 µM [activator, partial curve]",
CCOc1ccc(NC(=O)CSC2=Nc3ccccc3C3=NC(CC(=O)NCc4ccc5c(c4)OCO5)C(=O)N23)cc1 (stereo not drawn),"inconclusive: 44.7 µM [activator, single point]",
COc1ccc(C(CC(=O)NCc2ccc(Cl)cc2)N2Cc3ccccc3C2=O)cc1OC (stereo not drawn),inactive,
COc1ccc(Cc2nn3c(-c4cc(OC)c(OC)c(OC)c4)nnc3s2)cc1,"inconclusive: 31.6 µM [activator, single point]",
CCOC(=O)c1cc(NC(=O)c2ccccc2)c(=O)oc1-c1ccccc1,,inconclusive: 95.2% [activator]
Oc1ccc(Nc2ncnc3ccccc23)cc1,"inconclusive: 4.47 µM [activator, full curve, poor fit]",
CCn1c(SCC(=O)Nc2cccc(NC(C)=O)c2)nnc1-c1ccco1,inactive,
Cc1nc(N)[nH]c(=O)c1CCCNc1ccc(CCC2(CCl)OCCO2)cc1,"inconclusive: 31.6 µM [activator, partial curve, poor fit]",
